# Source: the antibiotic and cytotoxicity screens of Wong et al. (2023)
# This is one part of the list.
# Key:
# HSkMC = human skeletal muscle cells; experiment: cytotoxicity call (relative viability < 0.9); conditions: 10 µM
# HepG2 = experiment: cytotoxicity call (relative viability < 0.9); conditions: 10 µM
# S. aureus RN4220 = experiment: growth inhibition call (relative growth <= 0.2); conditions: 50 µM
SMILES,cytotoxicity call (HSkMC),cytotoxicity call (HepG2),growth inhibition call (S. aureus RN4220)
C[C@@H]1CN([C@H](C)CO)C(=O)c2c(c3ccccc3n2C)-c2ccccc2CO[C@@H]1CN(C)C(=O)N[C@H](C)c1ccccc1,inactive,inactive,inactive
COc1ccc(S(=O)(=O)N(C)C[C@@H]2Oc3c(NS(=O)(=O)c4ccccc4)cccc3C(=O)N([C@@H](C)CO)C[C@H]2C)cc1,inactive,inactive,inactive
C[C@@H]1CN([C@H](C)CO)C(=O)Cc2cc(NC(=O)Nc3ccc(C(F)(F)F)cc3)ccc2O[C@@H]1CN(C)Cc1ccncc1,inactive,active,inactive
C[C@@H]1CN([C@H](C)CO)C(=O)Cc2cc(NC(=O)Nc3cccc4ccccc34)ccc2O[C@H]1CN(C)Cc1ccc(Oc2ccccc2)cc1,inactive,inactive,inactive
C[C@H](CO)N1C[C@H](C)[C@H](CN(C)Cc2ccc(Oc3ccccc3)cc2)Oc2ccc(NC(=O)Nc3cccc4ccccc34)cc2CC1=O,inactive,inactive,inactive
COCC(=O)N1CCO[C@@H]2[C@H]1CC[C@H]2OC,inactive,inactive,inactive
Cc1noc(C)c1S(=O)(=O)Nc1ccc2c(c1)C(=O)N([C@@H](C)CO)C[C@@H](C)[C@@H](CN(C)C(=O)NC1CCCCC1)O2,inactive,inactive,inactive
C[C@@H]1CN([C@@H](C)CO)C(=O)c2cc(NS(=O)(=O)c3cn(C)cn3)ccc2O[C@@H](C)CCCCO[C@@H]1CN(C)C(=O)c1ccncc1,inactive,inactive,inactive
C[C@@H]1CN([C@@H](C)CO)S(=O)(=O)c2ccc(C3=CCCC3)cc2O[C@H]1CN(C)S(=O)(=O)c1cn(C)cn1,inactive,inactive,inactive
C[C@@H]1CN([C@H](C)CO)C(=O)Cc2cc(NC(=O)C3CC3)ccc2O[C@@H]1CN(C)S(=O)(=O)c1ccc(Cl)cc1,inactive,inactive,inactive
COc1ccc(S(=O)(=O)N(C)C[C@H]2Oc3ccc(NC(=O)C4CC4)cc3C(=O)N([C@@H](C)CO)C[C@H]2C)cc1,inactive,inactive,inactive
C[C@@H]1CN([C@@H](C)CO)S(=O)(=O)c2ccc(-c3cncnc3)cc2O[C@H]1CN(C)C(=O)c1ccc2c(c1)OCO2,inactive,inactive,inactive
Cc1ccc(S(=O)(=O)N(C)C[C@@H]2Oc3ccc(NS(=O)(=O)c4cccs4)cc3C(=O)N([C@@H](C)CO)C[C@@H]2C)cc1,inactive,inactive,inactive
C[C@H]1CN([C@@H](C)CO)C(=O)c2cccc(NC(=O)CCCCCC(=O)Nc3ccccc3N)c2O[C@@H]1CN(C)Cc1ccc(Oc2ccccc2)cc1,inactive,inactive,inactive
C[C@@H]1CCCCO[C@@H](CN(C)S(=O)(=O)c2cn(C)cn2)[C@@H](C)CN([C@@H](C)CO)C(=O)c2cc(NC(=O)Nc3cccc4ccccc34)ccc2O1,inactive,inactive,inactive
COC1CCNCC1,inactive,inactive,inactive
COc1ccc(NC(=O)N(C)C[C@H]2Oc3ncc(C#CCN(C)C)cc3C(=O)N([C@@H](C)CO)C[C@@H]2C)cc1,inactive,inactive,inactive
O=C(CN1CCOCC1)N[C@H]1CC[C@H](CCNS(=O)(=O)c2ccccc2F)O[C@H]1CO,inactive,inactive,inactive
Nc1ccc(S(N)(=O)=O)cc1,inactive,inactive,inactive
CNC(=O)CN1CCOC[C@@]2(C1)CN(C(=O)c1ccn[nH]1)CCO2,inactive,inactive,inactive
O=C(O)/C=C\C(=O)Nc1cccc(C(=O)O)c1,inactive,inactive,inactive
C[C@H](CO)N1C[C@H](C)[C@H](CN(C)C(=O)Cc2ccccn2)Oc2cc(C#Cc3ccccc3)ccc2S1(=O)=O,inactive,inactive,inactive
C[C@@H]1CN([C@H](C)CO)C(=O)c2cccc(NC(=O)c3ccc(-c4nccs4)cc3)c2O[C@@H]1CN(C)C(=O)Nc1ccc2c(c1)OCO2,inactive,inactive,inactive
C[C@@H]1CN([C@H](C)CO)C(=O)c2cc(-c3cncnc3)cnc2O[C@@H]1CN(C)C(=O)Nc1ccc2c(c1)OCO2,inactive,inactive,inactive
C[C@@H]1CN([C@@H](C)CO)C(=O)c2cccc(NC(=O)c3ccc(-c4nccs4)cc3)c2O[C@@H]1CN(C)Cc1ccc(C(=O)O)cc1,inactive,inactive,inactive
C[C@@H]1CN([C@H](C)CO)C(=O)c2cccc(NC(=O)Nc3ccc4c(c3)OCO4)c2O[C@H]1CN(C)S(=O)(=O)c1cn(C)cn1,inactive,inactive,inactive

SMILES,cytotoxicity call (HSkMC),cytotoxicity call (HepG2),growth inhibition call (S. aureus RN4220)
Cc1ccc(S(=O)(=O)Nc2ccc3c(c2)C(=O)N([C@H](C)CO)C[C@H](C)[C@@H](CN(C)Cc2ccc4c(c2)OCO4)OCCCC[C@@H](C)O3)cc1,inactive,inactive,inactive
Cc1ccc(S(=O)(=O)N(C)C[C@@H]2Oc3ccc(NC(=O)CCN4CCOCC4)cc3CC(=O)N([C@H](C)CO)C[C@H]2C)cc1,inactive,inactive,inactive
C[C@H](CO)N1C[C@H](C)[C@H](CN(C)S(C)(=O)=O)Oc2ccc(NS(=O)(=O)c3ccc(F)cc3)cc2CC1=O,inactive,inactive,inactive
C[C@@H]1CN([C@H](C)CO)C(=O)c2cc(NC(=O)CCCCCC(=O)Nc3ccccc3N)ccc2O[C@@H](C)CCCCO[C@@H]1CN(C)C(=O)C1CCCCC1,inactive,inactive,inactive
COc1ccc([Si](C)(C)[C@H]2[C@H](CCn3cc([C@H](O)c4ccccc4)nn3)O[C@@]3(C(=O)N(Cc4ccc(N5CCOC5=O)cc4)c4ccccc43)[C@@H]2C)cc1,inactive,inactive,inactive
C[C@H](CO)N1C[C@H](C)[C@H](CN(C)C(=O)Cc2cccnc2)Oc2ncc(C#CC3(O)CCCC3)cc2C1=O,inactive,inactive,inactive
C[C@@H]1CN([C@H](C)CO)C(=O)Cc2cc(NS(=O)(=O)c3ccc(Cl)cc3)ccc2O[C@H]1CN(C)Cc1ccc(C(=O)Nc2ccccc2N)cc1,inactive,inactive,inactive
OC[C@H]1O[C@@](CO)(O[C@@H]2O[C@H](CO)[C@@H](O)[C@H](O)[C@H]2O)[C@@H](O[C@@H]2O[C@H](CO)[C@@H](O)[C@H](O)[C@H]2O)[C@@H]1O,inactive,inactive,inactive
COc1ccccc1C#Cc1cnc2c(c1)C(=O)N([C@H](C)CO)C[C@H](C)[C@H](CN(C)C(=O)CC1CC1)O2,inactive,inactive,inactive
C[C@@H]1CCCCO[C@H](CN(C)C(=O)Nc2cccc3ccccc23)[C@@H](C)CN([C@@H](C)CO)C(=O)c2cc(NC(=O)Cc3ccccc3)ccc2O1,inactive,inactive,inactive
N=C(N)NCCC[C@H](N)C(=O)NCC(=O)N[C@@H](CC(=O)O)C(=O)N[C@@H](CO)C(=O)O,inactive,inactive,inactive
COC(=O)[C@@H](Cc1ccc(-n2cc(COc3ccccc3/C=C(C)/C=C/C(=O)NO)nn2)cc1)N1CC2=CCCC=C[C@@H]2[C@H]1[C@H](O)Cc1ccccc1,inactive,active,inactive
C[C@H]1CCCCO[C@H](CN(C)Cc2ccc(C(=O)O)cc2)[C@@H](C)CN([C@@H](C)CO)C(=O)c2cc(NC(=O)c3ccccc3)ccc2O1,inactive,inactive,inactive
Cc1ccc(S(=O)(=O)N(C)C[C@@H]2Oc3c(NC(=O)C4CC4)cccc3C(=O)N([C@H](C)CO)C[C@H]2C)cc1,inactive,inactive,inactive
COc1ccc(COCC23Oc4ccccc4[C@H]([C@H]2CO[Si](C)(C)C(C)(C)C)n2c(c4ccccc4c(-c4ccccc4)c2=O)N3C)cc1,active,active,inactive
C[C@@H]1CCCCO[C@@H](CN(C)C(=O)c2ccncc2)[C@H](C)CN([C@@H](C)CO)C(=O)c2cc(NC(=O)NC3CCCCC3)ccc2O1,inactive,inactive,inactive
C[C@H](CO)N1C[C@H](C)[C@@H](CN(C)Cc2ccc(C(F)(F)F)cc2)Oc2ccc(NC(=O)C3CCCCC3)cc2C1=O,inactive,inactive,inactive
C[C@@H]1CCCCO[C@@H](CN(C)S(=O)(=O)c2cn(C)cn2)[C@H](C)CN([C@@H](C)CO)C(=O)c2cc(NC(=O)c3ccncc3)ccc2O1,inactive,inactive,inactive
CCC[C@@H](O)C#Cc1cnc2c(c1)C(=O)N([C@H](C)CO)C[C@H](C)[C@H](CN(C)S(C)(=O)=O)O2,inactive,inactive,inactive
O=C(C[C@H]1CC[C@H]2[C@@H](COC[C@H](O)CN2C(=O)Nc2cccc(F)c2)O1)NCc1ccccc1Cl,inactive,inactive,inactive
COC(=O)[C@H](Cc1ccccc1)N1CC2=C[C@@H](C3CC3)n3c(=O)n(C)c(=O)n3[C@H]2[C@@H]1[C@@H](O)CCn1cc(-c2ccc(C(=O)NO)s2)nn1,inactive,inactive,inactive
C[C@H]1CN([C@@H](C)CO)C(=O)Cc2cc(NS(=O)(=O)c3cccs3)ccc2O[C@@H]1CN(C)CC1CC1,inactive,inactive,inactive
CC(=O)N(C)C[C@@H]1Oc2cc(C#CCN(C)C)ccc2S(=O)(=O)N([C@H](C)CO)C[C@@H]1C,inactive,inactive,inactive
C[C@@H]1CN([C@@H](C)CO)C(=O)c2cc(NC(=O)c3ccncc3)ccc2O[C@@H](C)CCCCO[C@@H]1CN(C)C(=O)C1CCCCC1,inactive,inactive,inactive
C[C@H](CO)N1C[C@H](C)[C@@H](CN(C)C(=O)C2CCOCC2)Oc2cc(-c3ccc(C(=O)N(C)C)cc3)ccc2S1(=O)=O,inactive,inactive,inactive
